Measured values: the supplement of paper PMC4466236
In all, about 33,000 sequences were measured (“E-score (dimensionless, -0.5 to 0.5)”: median about -0.058, highest 2% from about 0.35 on). Some of the results follow.

What follows are sequences tested on MvaT (assay: PBM 8-mer E-score (mean of HK and ME arrays) (E-score (dimensionless, -0.5 to 0.5)); higher = stronger relative binding preference; most listed sequences are background and not binding sites).
Outline: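 Full-length P. aeruginosa MvaT, with glutathione S-transferase fused to its N-terminus (cloned into pTH6838 by isothermal assembly), was tested by protein binding microarray using a previously described protocol. Two universal double-stranded 60-mer arrays (ME and HK) were used, each with a constant 25-mer primer region and a variable 35-mer region covering all 8-mers. The rank-based 8-mer E-score (-0.5 to 0.5) is the mean of the two arrays, parsed with a custom Python script.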

Sequence	PBM 8-mer E-score
CCAGCAAG	-0.0175
GGAGGGGA	-0.359
GCCAACAA	0.0913
CCTATGCC	-0.186
CACGGCCA	-0.192
TGCGGTAA	0.00472
CAGCATGG	-0.0956
GAAATACC	0.153
GAAGCCCC	-0.256
CAGCGAGC	-0.199
ATAGGAAT	0.124
AGGCAGGG	-0.202
AGGAGAGG	-0.302
CTCTGTAC	-0.205
ATCAGAAT	0.06
CTACGTTC	-0.226
ACGCACCC	-0.125
AGCAATCA	0.0975
GAACGCTC	-0.183
AGCCCGCC	-0.113
ATATGACC	0.0259
CTTCATGA	-0.0582
CTTACAGC	-0.123
CCACTCAG	-0.127
CAACGGAG	-0.199

Sequence	PBM 8-mer E-score
CCCCGGAC	-0.266
CACCCGGA	-0.27
GGAGGGAC	-0.273
CAGGACTG	-0.0561
CTTACTAC	0.0674
ATCGCCCC	-0.264
CGATAGAC	-0.0996
ATTTTTGG	0.04
ACTAGTGC	0.0641
CACACCCA	0.0517
ACACTAAC	0.216
CCGACGTA	-0.0615
GTACTAAA	0.213
CCTCCTAC	-0.274
GTCTCCAA	-0.205
CCTTCATA	0.0473
GCCCCGCC	-0.264
ACTAACGA	0.169
CGTCGTGA	-0.171
GTGCGCAA	0.017
ACCTTTGG	-0.119
GAGTTAGC	-0.00613
AGGGGACT	-0.213
GCAACTAA	0.147
CGTTTCGC	-0.0825

Sequence	PBM 8-mer E-score
TCCCTCGA	-0.07
CGAACGCG	-0.0354
CAAGAAGC	-0.16
AGGCCTCA	-0.268
AGTAAACA	0.0963
GTCGTCTA	-0.0717
ATAGGGCG	-0.00817
AGCGTTCG	-0.109
ACAGGTGG	-0.204
CGCCCACA	-0.198
ATAAGCCA	0.0651
CTATTGAC	0.0407
CGTAAGAA	-0.0208
AAGGTAGC	-0.06
CCTGCACG	-0.224
ATGCTACA	0.0189
AGTATAGC	-0.0476
GATAATCC	0.175
AGAGCTGC	-0.163
AACCAAGC	-0.124
ATGCGTGA	-0.0665
ATGCTGTC	-0.105
GCTCACGA	-0.171
GATTGTCC	-0.0667
CCGCCGGA	-0.104

Sequence	PBM 8-mer E-score
CTATGGTA	0.0829
ACAATATC	0.258
CGGTCGGA	-0.368
ACAGTTAC	0.236
AACCACGC	-0.0918
CGCGTACA	-0.101
AGTGCGTC	-0.0339
GACCATAA	-0.0261
CGTAGACC	-0.261
TAAAGGAA	0.0516
ATGTGCCC	-0.103
CCTGAGTC	-0.0974
GAGAACGC	-0.107
CCGCATAG	-0.0568
GCTTAAAC	0.121
CTCGCCAA	-0.145
ACCATGTA	0.111
ATTTGGTG	0.146
ATTCCGTA	0.129
ATCACCGG	-0.204
GTAATGAA	0.00633
AAACCATT	0.123
AGGAGCAG	-0.32
CATTACTC	0.108
TCCCCTCA	-0.358

Sequence	PBM 8-mer E-score
GGAGAAGA	-0.196
AAGTCCCT	-0.0831
GCGTTTAC	-0.149
CGCCGTAA	-0.155
CTTTGCTA	0.169
ACCATATG	0.281
TAGCCCCA	-0.121
CAGAAGAC	0.0523
CGCGTGCC	-0.256
AGGTCCAG	-0.177
AAACTCGA	0.097
CTGCTCGA	-0.203
CCCCCTCC	-0.39
GTGAGGCA	-0.207
CTAAGGAA	-0.0352
ACACATGG	-0.0786
AATGTCGG	0.128
ACTCGATA	0.0712
CATCGAAA	0.0174
TATCATCA	0.112
AATACGCG	0.202
CCCCTATA	-0.0385
AATGACCC	-0.126
ATATTGGG	0.172
CCAAAGCG	-0.169

Sequence	PBM 8-mer E-score
CATGTCAA	0.0801
AGTTAACT	0.377
GAATCAGC	-0.166
CAGGCCAA	-0.233
AGAGCGCG	-0.146
ATCTCAAC	-0.0313
ACAGGGTG	-0.121
CCCTATTA	0.186
ACGAGTCT	-0.152
CTGGCAGA	-0.238
CACCAATC	0.0155
CACGTTAG	-0.171
CTACGTCA	-0.159
ATCACGGA	-0.132
GTCAACTA	0.19
ACAGCGGT	-0.17
GGCGTTAA	0.0645
CCGTGTCG	-0.298
ACAGAGCC	-0.222
ACTCGCGA	0.0409
GACGCGCC	-0.316
AGCAGCAG	-0.173
CGACCACA	-0.161
CGCCGAAG	-0.252
ACCACTGG	-0.167

Sequence	PBM 8-mer E-score
GCCCAGGC	-0.322
ACTGCAAT	0.121
ACAATTCC	0.137
ACAACGAA	0.0473
CGTTGGGA	-0.154
TGAATAAA	0.268
GACAGTAA	0.193
ATGAAGGG	-0.143
AGCTGGAG	-0.185
ATGCGCCC	-0.224
ATCGTTTA	0.0357
CAAGCTAC	-0.145
AGGGCTTG	-0.282
CGGGATAG	-0.00495
CTACGGAG	-0.173
GCCAGACC	-0.183
ACACCACG	-0.138
CAATGAAC	-0.0194
CTATCGTA	0.0644
CAATTTTC	0.0781
AGATCCTC	-0.195
ACCATGAG	-0.112
